# According to PubChem BioAssay AID1346428 (National Center for Advancing Translational Sciences (NCATS), 2018):
# Hit rate of the full screen: of about 48,000 compounds, about 1,200 (2.5%) were called active. About 2% were inconclusive and are not listed.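 The calls were made as follows: active = activation of at least 60% and not above a set upper limit (about 1 call in 100 departs from these limits); inconclusive = activation of 40% to 60%, or above that upper limit; inactive = activation under 40%.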 This is one part of the list.
# Target: Probable G-protein coupled receptor 32 (Homo sapiens) (UniProt O75388)
# UniProt O75388, sequence (O75388 whole entry, looked up): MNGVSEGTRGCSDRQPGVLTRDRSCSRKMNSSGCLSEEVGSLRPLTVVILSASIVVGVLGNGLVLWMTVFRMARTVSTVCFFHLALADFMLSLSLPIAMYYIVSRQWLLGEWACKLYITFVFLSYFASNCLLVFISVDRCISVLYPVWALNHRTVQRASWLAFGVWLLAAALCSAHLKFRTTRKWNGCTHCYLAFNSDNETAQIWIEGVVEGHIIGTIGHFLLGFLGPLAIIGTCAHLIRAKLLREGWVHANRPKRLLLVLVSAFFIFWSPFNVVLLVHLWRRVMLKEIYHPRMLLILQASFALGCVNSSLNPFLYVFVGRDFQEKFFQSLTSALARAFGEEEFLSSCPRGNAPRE
# Test: qHTS for Agonists of Human Resolvin D1 Receptor DRV1; also: 0% is about no effect
# Conditions: CHO-K1 GPR32 beta-arrestin PathHunter luminescence, 90 min; at 76.9 µM; hits give high values; zero percent set by DMSO-only wells
# Procedure, shortened: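 Step 1: seed CHO-K1 GPR32 beta-arrestin cells, 2,500/well, overnight at 37 °C. Step 2: add compounds, 90 min at 37 °C. Step 3: detection reagent, 1 h ambient, then luminescence.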
row,SMILES,activation
1,CCc1ccc(OCc2nc(-c3ccc(OC)cc3)no2)c(Br)c1,inactive: -18.8%
2,CCCc1ncc(C(=O)O)s1,inactive: -6.33%
3,O=C(Cn1ncc2c3ccccc3n(Cc3cccc(Cl)c3)c2c1=O)NCc1cccs1,inactive: -0.712%
4,O=C(Nc1nc2ccccc2s1)c1ccc(S(=O)(=O)N2CCCC2)cc1,inactive: -12.7%
5,CCOc1ccc(C2C(=O)N(C3CCCCCC3)CC(=O)N2CCc2ccc(OC)c(OC)c2)cc1OC (centres undefined),inactive: -28.1%
6,O=S(=O)(c1ccc2nc(NCc3ccccc3Cl)ccc2c1)N1CCCCC1,inactive: -43.5%
7,CC(CNC(=O)c1ccc(CSc2nc3ccncc3n2Cc2ccccc2)cc1)c1ccccc1 (centres undefined),inactive: -10.5%
8,COc1ccc(CNC(=O)CSc2nc(-c3ccc(OC)c(OC)c3)cc(C(F)(F)F)n2)cc1,inactive: -11%
9,Cc1c(Cl)cccc1-n1nc(C)c2c(C)cc(=O)n(CC(=O)N3CCCc4ccccc43)c21,inactive: -8.41%
10,COc1ccc(-c2nc3ccccc3n3c(-c4ccc(OC)cc4)c4c(=O)n(C)c(=O)n(C)c4c23)cc1,inactive: 1.79%
11,Cc1ccc(CNC(=O)CCCN2C(=O)CCn3nc(-c4cccn4C)cc32)cc1,inactive: -9.42%
12,Cc1cc2oc3c(c(=O)c2cc1C)C(c1ccc(C(C)C)cc1)N(c1nc(C)c(C)s1)C3=O (centres undefined),inactive: -0.586%
13,CCCNC(=O)C1CCN(c2nc3ccc(C)cc3[nH]2)CC1,inactive: -16.1%
14,CCCOc1ccc(CNC(=O)C2CCN(C(=O)c3sccc3-n3cccc3)CC2)cc1,inactive: -12.2%
15,Cc1cnc(=O)[nH]c1SCC(=O)Nc1cc(C(F)(F)F)ccc1Cl,inactive: -0.474%
16,CCOC(=O)c1ccc2c(c1)N(Cc1ccc(F)cc1Cl)C(=O)c1ccccc1S2,inactive: -29.5%
17,Cc1cccc(C(=O)Nc2ccc(N3CCC(N4CCCCC4)CC3)c(C(=O)O)c2)c1,inactive: -6.7%
18,CCN1CCN(c2cc(C)c3cc(NC(=O)/C=C/c4ccc(C)cc4)ccc3n2)CC1,inactive: -8.31%
19,COc1cccc(NC(=O)N(Cc2cn(C)c3ccccc23)C2CCCCCC2)c1,inactive: -1.49%
20,COCCNC(=O)CSc1nc(-c2ccccc2)[nH]c1-c1ccc(C)cc1,inactive: -22.5%
21,Cc1ccc(C)n1-c1nnc(N2CCCC(C(=O)NCc3cccc(Br)c3)C2)s1 (centres undefined),inactive: 9.96%
22,COc1cc(CNc2ccc3[nH]c(=O)[nH]c3c2)cc(Br)c1OCc1ccccc1F,inactive: 5.59%
23,Cc1cccc(CN2CCN(CC(=O)Nc3c(C)cccc3C)S2(=O)=O)c1,inactive: -19.1%
24,NC1=NC(c2cc(F)cc(F)c2)n2c(nc3ccccc32)N1 (centres undefined),inactive: 46.3%
25,CC1=C(C(=O)NCc2ccc(Cl)cc2)C2(CCC(C)CC2)OC1=O (centres undefined),inactive: -21.6%
26,Cc1ccc(CNC(=O)CCc2c(C)nc3c4c(C)cc(C)nc4nn3c2C)cc1,inactive: 9.99%
27,Cc1ccc(Cl)cc1NC(=O)CC1Sc2ccccc2NC1=O (centres undefined),inactive: 14.5%

row,SMILES,activation
1,COc1cccc(NC(=O)Cn2c(-c3nonc3N)nc3ccccc32)c1,inactive: 2.04%
2,COc1ccccc1N1CCN(c2csc3ccccc3c2=O)CC1,inactive: -25.9%
3,Cc1cccc(C)c1Nc1c(-c2ccsc2)nc2cccc(C)n12,inactive: -6.32%
4,COc1cc(NC(=O)CCS(=O)(=O)c2ccc3c(c2)n(C)c(=O)c(=O)n3C)cc(OC)c1,inactive: -23%
5,Cc1cccc(NC(=O)N2CCN3CCCCC3C2)c1C (centres undefined),inactive: -9.91%
6,CCc1ccc(Sc2cc(C(=O)NCCCN3CCC(C)CC3)c3ccccc3n2)cc1,active: 89.4%
7,COC(=O)c1cc2oc3ccccc3c2n1Cc1ccccc1Cl,inactive: -9.18%
8,COc1ccccc1CNC(=O)CCCCn1c(=O)c2ccccc2n(CC(=O)Nc2cccc(Cl)c2)c1=O,inactive: 2.38%
9,CCOc1ccc(/C=C/c2nc(C#N)c(N3CCC(C)CC3)o2)cc1,inactive: -29.8%
10,O=c1c(-c2cc(-c3ccccc3)nc3c2COc2ccccc2-3)coc2ccc(Cl)cc12,inactive: 5.71%
11,Cc1ccc(-n2ncc3c(N4CCN(c5ccc(F)cc5)CC4)ncnc32)cc1,inactive: 20.4%
12,COc1ccc2oc(-c3ccc(NC(=O)c4ccc(Cl)cc4Cl)cc3)nc2c1,inactive: 37.8%
13,COc1ccc(CNC(=O)C(=O)Nc2cccc(C)c2C)cc1,inactive: 43%
14,CCc1ccc(NC(=O)C2CCCN(c3nnc(C)c4c(C)n(-c5ccccc5)nc34)C2)cc1 (centres undefined),inactive: 4%
15,O=C(Nc1cc(Cl)ccc1Cl)c1cc(S(=O)(=O)N2CCc3ccccc3C2)ccc1F,inactive: -21.3%
16,CN1CCN(C2=Nc3ccccc3Sc3ccc(Cl)cc32)CC1,inactive: -0.665%
17,O=C(Cn1c(-c2cccs2)cc2ccccc21)N1CCN(c2ccc(F)cc2)CC1,inactive: -10.9%
18,COC(=O)c1c(-c2cccs2)csc1NC(=O)c1ccc(C)cc1,inactive: -2.33%
19,COc1ccc(OC)c(C(=O)CN2C(=O)N(c3ccc(C)cc3)S(=O)(=O)c3ccccc32)c1,inactive: -32.6%
20,Cc1ccc(CNS(=O)(=O)c2ccc3c(c2)CC(C)N3C(=O)C2CCC2)cc1 (centres undefined),inactive: 13.9%
21,Cc1cc(Br)ccc1NC(=O)c1c(C)oc2ncnc(N3CCCCC3)c12,inactive: -6.41%
22,Cc1ccccc1N1CC(c2nc3ccccc3n2Cc2ccc(Br)cc2)CC1=O (centres undefined),active: 91.7%
23,COc1ccccc1NC(=O)Cn1c(=O)n(CC2CCC(C(=O)NCCc3ccccc3)CC2)c(=O)c2ccccc21 (centres undefined),inactive: -17.5%
24,CCOC(=O)CSc1nc2sc3c(c2c(=O)n1-c1ccc(OC)cc1)CC(C(C)C)OC3 (centres undefined),inactive: 5.81%
25,Cc1cc(NC(=O)c2cc(-c3ccc(Cl)c(Cl)c3)on2)n(-c2ccccc2)n1,inactive: -4.3%
26,CCOc1ccc(CNC(=O)C2CCN(C(=O)N3CC(CC)Oc4ccc(C)cc43)CC2)cc1OC (centres undefined),inactive: -19.2%
27,CCOC(=O)N1CCc2c(sc3c2C(=O)NC(c2ccc(C(=O)OC)cc2)N3)C1 (centres undefined),inactive: -2.46%
